The other results are listed elsewhere or left out. Viral Rep nickase domains cut single-stranded DNA in vitro (1 h at 37 °C, 3 µM enzyme); the outer parts of the 90-letter strands are left off. The score is log2 (uncut reads / reads without enzyme); strong cutting gives strongly negative numbers. There is no active / inactive call. Reads are scaled to the total; uncut strands gain when others are lost, and binding without cutting may add a little.
Columns and labels:
Test in all cases: uncleaved DNA left, log2 of reads against the no-enzyme library (log2 ratio); higher = less cleavage (more negative = more Rep cleavage of the k-mer); sequences stand for … in CTCGTCCG…ACCGGAGA
[1] = system: T1, Rep nickase domain of Muscovy duck circovirus
T1 sequence (residues 1-111, tag not shown): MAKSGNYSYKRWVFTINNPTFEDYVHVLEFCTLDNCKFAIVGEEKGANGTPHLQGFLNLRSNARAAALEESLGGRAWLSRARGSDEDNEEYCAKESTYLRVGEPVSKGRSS
Protocol: (§1)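 A pool of 90-nt single-stranded DNAs with seven random bases just before the constant AC of the nick site (name = the seven bases) was cut by 3 µM recombinant His6-SUMO-tagged Rep nickase domain (300 nM DNA, 50 mM HEPES pH 8.0, 50 mM NaCl, 1 mM MnCl2, 1 h, 37 °C, three replicates). Uncut DNA was amplified and sequenced.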

[2] = system: T2, Rep nickase domain of banana bunchy top virus
T2 sequence (residues 1-94, tag not shown): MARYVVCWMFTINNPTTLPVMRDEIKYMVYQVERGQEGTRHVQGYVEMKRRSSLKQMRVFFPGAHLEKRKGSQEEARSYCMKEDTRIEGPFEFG
Protocol: as §1

[3] = system: T3, Rep nickase domain of cabbage leaf curl virus
T3 sequence (residues 1-116, tag not shown): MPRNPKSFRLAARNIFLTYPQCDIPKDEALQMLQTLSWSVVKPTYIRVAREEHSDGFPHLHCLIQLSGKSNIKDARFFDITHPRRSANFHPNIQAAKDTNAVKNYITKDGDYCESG
Protocol: as §1

[4] = system: T4, Rep nickase domain of chickpea chlorotic dwarf virus
T4 sequence (residues 1-124, tag not shown): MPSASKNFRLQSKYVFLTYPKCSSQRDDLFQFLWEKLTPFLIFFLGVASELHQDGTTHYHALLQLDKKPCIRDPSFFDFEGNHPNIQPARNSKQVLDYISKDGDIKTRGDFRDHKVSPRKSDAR
Protocol: as §1

[5] = system: T5, Rep nickase domain of faba bean necrotic yellows virus
T5 sequence (residues 1-98, tag not shown): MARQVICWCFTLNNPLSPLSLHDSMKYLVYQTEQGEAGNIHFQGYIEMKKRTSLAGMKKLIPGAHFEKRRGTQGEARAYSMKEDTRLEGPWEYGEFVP
Protocol: as §1

[6] = system: T6, Rep nickase domain of maize striate mosaic virus
T6 sequence (residues 1-117, tag not shown): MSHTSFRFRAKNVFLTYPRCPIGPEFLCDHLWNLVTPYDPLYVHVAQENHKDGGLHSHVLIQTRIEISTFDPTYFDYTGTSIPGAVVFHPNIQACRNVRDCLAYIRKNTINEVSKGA
Protocol: as §1

[7] = system: T7, Rep nickase domain of porcine circovirus 2
T7 sequence (residues 2-116, tag not shown): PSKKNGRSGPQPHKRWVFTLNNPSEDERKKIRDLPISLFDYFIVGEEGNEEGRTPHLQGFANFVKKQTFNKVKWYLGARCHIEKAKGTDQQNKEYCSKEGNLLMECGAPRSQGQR
Protocol: as §1

[8] = system: T8, Rep nickase domain of tomato golden mosaic virus
T8 sequence (residues 1-124, tag not shown): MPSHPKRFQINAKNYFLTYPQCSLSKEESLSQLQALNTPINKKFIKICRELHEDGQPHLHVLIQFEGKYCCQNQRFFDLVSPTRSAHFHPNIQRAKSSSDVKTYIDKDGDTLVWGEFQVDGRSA
Protocol: as §1

[9] = system: T9, Rep nickase domain of tomato yellow leaf curl virus
T9 sequence (residues 1-136, tag not shown): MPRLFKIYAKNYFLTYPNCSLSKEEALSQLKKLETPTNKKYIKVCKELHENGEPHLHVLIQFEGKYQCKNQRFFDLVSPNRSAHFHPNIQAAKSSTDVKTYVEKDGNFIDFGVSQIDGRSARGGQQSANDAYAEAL
Protocol: as §1

[10] = system: T10, Rep nickase domain of wheat dwarf virus
T10 sequence (residues 1-137, tag not shown): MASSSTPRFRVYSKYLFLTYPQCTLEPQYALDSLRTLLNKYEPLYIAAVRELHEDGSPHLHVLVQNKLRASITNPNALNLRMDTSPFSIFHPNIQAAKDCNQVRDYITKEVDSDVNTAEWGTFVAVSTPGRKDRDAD
Protocol: as §1

TCGGGGC
uncleaved DNA left (log2) [1]: -0.00829
uncleaved DNA left (log2) [2]: 0.0188
uncleaved DNA left (log2) [3]: 0.735
uncleaved DNA left (log2) [4]: 1.13
uncleaved DNA left (log2) [5]: -0.14
uncleaved DNA left (log2) [6]: 1.95
uncleaved DNA left (log2) [7]: 0.252
uncleaved DNA left (log2) [8]: 0.172
uncleaved DNA left (log2) [9]: 3.93e-05
uncleaved DNA left (log2) [10]: -0.015

CCCAGTA
uncleaved DNA left (log2) [1]: 0.00909
uncleaved DNA left (log2) [2]: 0.14
uncleaved DNA left (log2) [3]: 0.102
uncleaved DNA left (log2) [4]: -0.991
uncleaved DNA left (log2) [5]: 0.148
uncleaved DNA left (log2) [6]: -0.619
uncleaved DNA left (log2) [7]: 0.15
uncleaved DNA left (log2) [8]: -0.0183
uncleaved DNA left (log2) [9]: 0.113
uncleaved DNA left (log2) [10]: -0.0499

GGCTTTT
uncleaved DNA left (log2) [1]: -0.641
uncleaved DNA left (log2) [2]: 0.0598
uncleaved DNA left (log2) [3]: 0.337
uncleaved DNA left (log2) [4]: 0.64
uncleaved DNA left (log2) [5]: 0.00969
uncleaved DNA left (log2) [6]: 1.72
uncleaved DNA left (log2) [7]: -2.48
uncleaved DNA left (log2) [8]: -0.00148
uncleaved DNA left (log2) [9]: 0.0375
uncleaved DNA left (log2) [10]: 0.0953

GTCGCAC
uncleaved DNA left (log2) [1]: -0.0722
uncleaved DNA left (log2) [2]: 0.00765
uncleaved DNA left (log2) [3]: 0.275
uncleaved DNA left (log2) [4]: 0.718
uncleaved DNA left (log2) [5]: -0.00726
uncleaved DNA left (log2) [6]: 1.28
uncleaved DNA left (log2) [7]: 0.0229
uncleaved DNA left (log2) [8]: 0.101
uncleaved DNA left (log2) [9]: 0.00777
uncleaved DNA left (log2) [10]: 0.0323

TACCGCT
uncleaved DNA left (log2) [1]: 0.0467
uncleaved DNA left (log2) [2]: 0.0194
uncleaved DNA left (log2) [3]: -0.221
uncleaved DNA left (log2) [4]: 0.704
uncleaved DNA left (log2) [5]: 0.0277
uncleaved DNA left (log2) [6]: 0.551
uncleaved DNA left (log2) [7]: -1.25
uncleaved DNA left (log2) [8]: -0.0532
uncleaved DNA left (log2) [9]: -0.0377
uncleaved DNA left (log2) [10]: -0.0966

TTGCAAT
uncleaved DNA left (log2) [1]: 0.0605
uncleaved DNA left (log2) [2]: 0.155
uncleaved DNA left (log2) [3]: -0.391
uncleaved DNA left (log2) [4]: -0.582
uncleaved DNA left (log2) [5]: 0.128
uncleaved DNA left (log2) [6]: -0.942
uncleaved DNA left (log2) [7]: 0.00593
uncleaved DNA left (log2) [8]: 0.112
uncleaved DNA left (log2) [9]: 0.13
uncleaved DNA left (log2) [10]: 0.0349

CATGTCA
uncleaved DNA left (log2) [1]: -0.16
uncleaved DNA left (log2) [2]: 0.0611
uncleaved DNA left (log2) [3]: -0.17
uncleaved DNA left (log2) [4]: -1.41
uncleaved DNA left (log2) [5]: -0.0112
uncleaved DNA left (log2) [6]: -0.99
uncleaved DNA left (log2) [7]: -0.061
uncleaved DNA left (log2) [8]: -0.0751
uncleaved DNA left (log2) [9]: 0.141
uncleaved DNA left (log2) [10]: 0.00336

GGCATCT
uncleaved DNA left (log2) [1]: 0.2
uncleaved DNA left (log2) [2]: 0.168
uncleaved DNA left (log2) [3]: 0.704
uncleaved DNA left (log2) [4]: 1.3
uncleaved DNA left (log2) [5]: 0.0872
uncleaved DNA left (log2) [6]: 1.98
uncleaved DNA left (log2) [7]: 0.222
uncleaved DNA left (log2) [8]: 0.0851
uncleaved DNA left (log2) [9]: 0.216
uncleaved DNA left (log2) [10]: 0.243

GTACGGA
uncleaved DNA left (log2) [1]: 0.112
uncleaved DNA left (log2) [2]: 0.0512
uncleaved DNA left (log2) [3]: 0.203
uncleaved DNA left (log2) [4]: 0.717
uncleaved DNA left (log2) [5]: 0.067
uncleaved DNA left (log2) [6]: 0.371
uncleaved DNA left (log2) [7]: 0.204
uncleaved DNA left (log2) [8]: 0.131
uncleaved DNA left (log2) [9]: 0.0747
uncleaved DNA left (log2) [10]: 0.109

GCCAAAC
uncleaved DNA left (log2) [1]: 0.000633
uncleaved DNA left (log2) [2]: 0.0506
uncleaved DNA left (log2) [3]: 0.0473
uncleaved DNA left (log2) [4]: 0.43
uncleaved DNA left (log2) [5]: 0.102
uncleaved DNA left (log2) [6]: -0.0999
uncleaved DNA left (log2) [7]: 0.159
uncleaved DNA left (log2) [8]: 0.0401
uncleaved DNA left (log2) [9]: 0.0464
uncleaved DNA left (log2) [10]: 0.0638

CGTACAG
uncleaved DNA left (log2) [1]: 0.102
uncleaved DNA left (log2) [2]: 0.0941
uncleaved DNA left (log2) [3]: -0.186
uncleaved DNA left (log2) [4]: -0.397
uncleaved DNA left (log2) [5]: -0.0186
uncleaved DNA left (log2) [6]: -0.338
uncleaved DNA left (log2) [7]: 0.139
uncleaved DNA left (log2) [8]: 0.059
uncleaved DNA left (log2) [9]: 0.0476
uncleaved DNA left (log2) [10]: 0.0626

GCGATAT
uncleaved DNA left (log2) [1]: 0.132
uncleaved DNA left (log2) [2]: 0.164
uncleaved DNA left (log2) [3]: 0.568
uncleaved DNA left (log2) [4]: 1.39
uncleaved DNA left (log2) [5]: -0.0542
uncleaved DNA left (log2) [6]: 1.7
uncleaved DNA left (log2) [7]: 0.141
uncleaved DNA left (log2) [8]: 0.0815
uncleaved DNA left (log2) [9]: 0.0564
uncleaved DNA left (log2) [10]: 0.109

TAGTCAA
uncleaved DNA left (log2) [1]: 0.00142
uncleaved DNA left (log2) [2]: 0.00299
uncleaved DNA left (log2) [3]: 0.189
uncleaved DNA left (log2) [4]: -0.248
uncleaved DNA left (log2) [5]: -0.00764
uncleaved DNA left (log2) [6]: 0.0199
uncleaved DNA left (log2) [7]: -2.49
uncleaved DNA left (log2) [8]: 0.0945
uncleaved DNA left (log2) [9]: 0.157
uncleaved DNA left (log2) [10]: 0.0715

GTGTACG
uncleaved DNA left (log2) [1]: 0.0793
uncleaved DNA left (log2) [2]: 0.093
uncleaved DNA left (log2) [3]: -0.382
uncleaved DNA left (log2) [4]: -0.174
uncleaved DNA left (log2) [5]: 0.107
uncleaved DNA left (log2) [6]: -0.443
uncleaved DNA left (log2) [7]: 0.116
uncleaved DNA left (log2) [8]: 0.0376
uncleaved DNA left (log2) [9]: 0.113
uncleaved DNA left (log2) [10]: 0.000264

GAAGTTC
uncleaved DNA left (log2) [1]: -0.0559
uncleaved DNA left (log2) [2]: -0.052
uncleaved DNA left (log2) [3]: 0.223
uncleaved DNA left (log2) [4]: -0.424
uncleaved DNA left (log2) [5]: -0.171
uncleaved DNA left (log2) [6]: 0.58
uncleaved DNA left (log2) [7]: -0.155
uncleaved DNA left (log2) [8]: -0.0751
uncleaved DNA left (log2) [9]: 0.0741
uncleaved DNA left (log2) [10]: 0.00937

Source: the supplement of paper PMC7826260
